The text below walks through data of patent US11319343B2, “Method of treatment” (ROYAL MELBOURNE INSTITUTE OF TECHNOLOGY, priority 2017, dated 2022).

The experiment deals with PKC. The experiment can be described thus: Cytosolic PKC activity, FRET biosensor cytoCKAR. To be noted: WT macrophages treated with Dynasore (100 μM) or bafilomycin A (100 nM). As to the method:
Cells were plated and transfected in suspension with 200 ng/well FRET biosensor DNA using PEI, in black, optically clear 96-well plates for 48 hr. Prior to the experiment, cells were partially serum-starved overnight in 0.5% v/v FBS media. Fluorescence imaging was performed using a high-content GE Healthcare INCell 2000 Analyzer with a Nikon Plan Fluor ELWD 40× (NA 0.6) objective and FRET module as described (Jensen et al. (2014) The Journal of Biological Chemistry 289(29):20283-20294). For CFP/YFP (CKAR) emission ratio analysis, cells were sequentially excited using a CFP filter (430/24) with emission measured using YFP (535/30) and CFP (470/24) filters, and a polychroic optimized for the CFP/YFP filter pair (Quad3). For GFP/RFP (EKAR) emission ratio analysis, cells were sequentially excited using a FITC filter (490/20) with emission measured using dsRed (605/52) and FITC (525/36) filters, and a polychroic optimized for the FITC/dsRed filter pair (Quad4). Cells were imaged every 100 sec for 20 min (image capture of 2 fields of view in 12 wells per 100 sec). Data were analyzed using in-house scripts written for the FIJI distribution of Image J 34, as described (Halls et al. (2015) supra.

For the molecule `O=C(N/N=C/c1ccc(O)c(O)c1)c1cc2ccccc2cc1O` [Dynasore], the “cytosolic PKC response to influenza A virus or imiquimod” value is given as “absent”.
The result for `CO/C1=C\C(C)=C\[C@@H](C)[C@@H](O)[C@@H](C)C/C(C)=C/C=C/[C@H](OC)[C@@H]([C@@H](C)[C@@H](O)[C@H](C)[C@@]2(O)C[C@@H](O)[C@H](C)[C@@H](C(C)C)O2)OC1=O` [bafilomycin A] reads “absent”.
